Source: PubChem BioAssay AID1963576 (National Center for Advancing Translational Sciences (NCATS), 2024)
The campaign covered roughly 46,000 compounds. About 60 (0.1%) were called active. About 3% were inconclusive and are not listed. The call rests on the fitted dose curve; in most records, active means well fitted inhibition curve with a large enough effect; inconclusive means small, poorly fitted or top-dose-only effect; inactive means no such curve, though single readings can be large or run the other way. This is one part of the list.

assay: Primary qHTS assay for Inhibitors of ovarian cancer metastasis using an organotypic tumor microenvironment (TME) model.; further: nearly all actives have a fitted effect of over 65% in size;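 on activity change, negative = inhibition: plate controls were DMSO wells for no effect and tomatine positive control wells for full effect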; details: SKOV3ip1-GFP adhesion/invasion on 3D omental model, fluorescence; series mostly up to 45.8 µM; activity change, negative = inhibition: at the top concentration
In short: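 Primary human omental fibroblast/mesothelial 3D culture pre-formed 48 h. SKOV3ip1-GFP cells added with compounds (0.36-46 umol/L), incubated 2 h RT/16 h 37 C, fixed; GFP cells quantified at 488/509 nm.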

Activity change, negative = inhibition, inactive:
Cn1nc(C(=O)N2CCN(c3ccc(Cl)cc3)CC2)c2c1-c1ccccc1S(=O)(=O)C2 3.02%
COc1cccc2c1cc1c(=O)n(CC(=O)O)nc(C)n12 4.97%
CC(=O)Nc1ccc(S(=O)(=O)NC2(C(F)(F)F)NC(=O)N(c3ccccc3F)C2=O)cc1 (stereo unspecified) 0.724%
CCOc1ccc(-c2c(C)nn3c(C)c(C(=O)NCCc4ccccc4)cnc23)cc1OCC -0.0403%
COc1cccc(-c2cc(C(=O)Nc3ccc(Br)c(C)c3)[nH]n2)c1 -7.62%
O=C1CC(c2nnc(Cc3cccc(Cl)c3)o2)CN1c1ccccc1 (stereo unspecified) 0.0919%
CC(C)(Sc1ccc(CCN(CCCCC2CCCCC2)C(=O)NC2CCCCC2)cc1)C(=O)O 10.8%
CC1CCCCN1S(=O)(=O)c1cc2c(=O)nc3ccccn3c2cc1Cl (stereo unspecified) -1.62%
CCOc1ccc(C2C(C(=O)Nc3ccccc3OC)=C(C)Nc3c(C(=O)Nc4cccc(C)c4)cnn32)cc1 (stereo unspecified) -1.53%
Cc1cccc(C)c1NS(=O)(=O)c1ccc2c(c1)[C@H]1C=CC[C@H]1[C@@H](c1ccc(Cl)cc1)N2 3.03%
CCn1c(CC2C(=O)Nc3ccccc32)nc2ccccc2c1=O (stereo unspecified) -16.2%
COc1ccc(CCNC(=O)c2cnc3sc(N4CCOCC4)nn3c2=O)cc1 -2.11%
CCOC(=O)c1cnc2c(ccc3ccccc32)c1Nc1cccc(Cl)c1 2.95%
CC1CCN(c2oc(-c3cccs3)nc2S(=O)(=O)c2ccccc2)CC1 -12.2%
CCOc1ccc(CNC(=O)C2CCN(c3nc4ccccc4nc3C(F)(F)F)CC2)cc1OC 7.38%
CCc1c(C)sc2c1CCN(Cc1ccccc1C#N)C2c1ccccc1 (stereo unspecified) -21.5%
COc1ccc(-n2nc3ccc(NC(=O)c4cccc(OCCC(C)C)c4)cc3n2)cc1 9.53%
COc1ccc(-n2cc(-c3ccc4c(c3)OCO4)n(CC(=O)Nc3cc(Cl)ccc3C)c2=O)cc1 -3.57%
Cc1nn(C)c2c1c(-c1ccccc1)cc(=O)n2Cc1ccc(F)cc1 1.97%
COc1ccc(C2=NS(=O)(=O)N(C)C(C(=O)NC(C)c3ccccc3)=C2)cc1 (stereo unspecified) 0.735%
COc1ccc(C)cc1NC(=O)c1nnn(Cc2cccc(Br)c2)c1N -27.5%
Cc1ccc(NC(=O)CCC(=O)N2Cc3ccccc3Oc3ncccc32)cc1Cl 7.25%
CCOC(=O)c1cnc2ccc(OC)cc2c1Nc1ccc(OCc2ccccc2Cl)cc1 0.947%
COc1ccc(CNC(=O)c2cnc(N3CCCC3)nc2C)c(OC)c1 -1.07%
CCc1ccc(C(=O)c2cn(CC(=O)Nc3cc(OC)ccc3OC)c3ccc(Cl)cc3c2=O)cc1 -20%
CCN(C(=O)CSc1nc2ccccc2n1CC(=O)N(C)C1CCCCC1)c1ccccc1 -3.6%
CCOC(=O)c1cc(-c2ccccc2)n(CCC(=O)NCCc2ccccc2)c1C -6.54%
Cc1ccc2oc(C(=O)Nc3ccc(S(=O)(=O)N4CCCCC4C)cc3)cc(=O)c2c1 (stereo unspecified) -14.9%
CCN(CC)S(=O)(=O)c1ccc2c(c1)N(CC(=O)NCCCN1CCN(c3ccc(OC)cc3)CC1)C(=O)CO2 -6.03%
CCCS(=O)(=O)N1CCC(n2c(C)nc3cccnc32)CC1 4.33%
CCOC(=O)c1ccc(NC(=O)N2CC3CCCN3c3ccccc32)cc1 (stereo unspecified) 2.29%
Cc1ccc2nc(-c3cccs3)c(Nc3ccc4c(c3)OCCO4)n2c1 -3.65%
O=C(Cn1cc(S(=O)(=O)N2CCCC2)c(S(=O)(=O)N2CCCC2)c1)Nc1ccc(F)cc1 25.2%
CCC1CCCCN1C(=O)CSc1nnc(-c2ccc(OC)c(OC)c2)o1 (stereo unspecified) 17.4%
CC(=O)c1cccc(NC(=O)CCc2c(C)nc3nc(CN)nn3c2C)c1 14.6%
COc1ccccc1NC(=O)CSc1cn(CC(=O)N2CCCC2)c2ccccc12 6.57%
COc1ccc(Cl)cc1Nc1ccc2cc(S(=O)(=O)N3CCCCC3)ccc2n1 2.44%
CCOc1ccc(N2CC(C)Cn3c2nc2c3c(=O)n(Cc3c(F)cccc3Cl)c(=O)n2C)cc1 (stereo unspecified) 5.75%
CCOc1ccc(NC(=O)c2ccc(F)c(S(=O)(=O)N(Cc3ccc(C(=O)OC)cc3)Cc3ccc(OC)c(OC)c3)c2)cc1 4.54%
COc1ccccc1NC(=O)C1=C(C)Nc2nc3ccccc3n2C1c1ccccc1Cl (stereo unspecified) 4.62%
CN(C)c1ncc(C(=O)NCc2ccc(Cl)cc2)cn1 1.27%
CCC(=O)N1CCc2cc(S(=O)(=O)NCc3ccc(C)cc3)ccc21 1.98%
CCOCCc1nnc(NC(=O)C(=O)c2cc(C)n(-c3ccc(Cl)cc3)c2C)s1 -5.97%
Cc1cc2n(n1)CCCN2C(=O)Nc1ccc(F)c(Cl)c1 1.3%
O=C(CSc1ncc(-c2ccccc2)[nH]1)Nc1cccc(Br)c1 -1.55%
Cc1cc(OCC(=O)N2CCC(c3nc4ccccc4s3)CC2)ccc1Cl -7.26%
COc1cccc(-c2nc3c(C#N)c[nH]n3c2NC2CCCC2)c1OC -9.42%
COc1cc2nc(NC(=O)c3ccc(S(=O)(=O)N4CCc5ccccc54)cc3)sc2cc1OC -6.69%
COc1cccc(-n2c(C)nc3cc(C(=O)O)ccc32)c1 4.08%
COC(=O)CN1C(C(=O)c2ccccc2)=C(OC(=O)c2ccc(F)cc2)c2ccccc2S1(=O)=O -0.955%

outcome, inactive:
CCOc1ccc(Nc2sc(C(=O)c3ccc4c(c3)OCO4)c(N)c2S(=O)(=O)c2ccc(C)cc2)cc1
CCC1CN(C(=O)Nc2cccc(OC)c2)c2ccccc2O1 (stereo unspecified)
COc1ccc2c(c1)c1c(c(=O)n(-c3ccc(F)c(Cl)c3)c(=O)n1CC(N)=O)n2C
COc1ccc(-n2c(=O)c3ccc(C(=O)NCc4ccc(C)cc4)cc3n(Cc3cccc(Cl)c3)c2=O)cc1
Cc1ccc2c(c1)cc1c(=O)n(Cc3ccc(Cl)cc3)nc(C)n12
COc1ccc(CN(Cc2ccco2)C(=O)c2ccccc2F)cc1
COc1ccc(-c2nc3sc(CCNC(=O)Cc4ccccc4)c(C)n3n2)cc1
COc1ccccc1CNC(=O)C(NS(=O)(=O)c1ccc2c(c1)CCN2C(C)=O)C(C)C (stereo unspecified)
CC(C)(C)C1CCc2c(sc(NC(=O)c3noc4c3CCCC4)c2C#N)C1 (stereo unspecified)
Cc1ccc(-c2nnn3c2nc(NC2CCC(C)CC2)c2ccccc23)cc1 (stereo unspecified)
CC1CCCCN1C(=O)c1ccc2c(c1)N(Cc1ccc(F)cc1)C(=O)c1ccccc1S2(=O)=O (stereo unspecified)
